Test results reported in the supplement of paper PMC8728848.
The list shows a part of the results.

What was measured:
Assay in all cases: glycan array binding signal (z-score within array); higher = stronger binding
Settings in all cases: glycan notation: IUPAC condensed, linker removed
[1] = molecular target: Fuc(a1-2)Gal6S(b1-3)GlcNAc6S
Procedure, shortened: (§1)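 Columns mapping to the same glycan were averaged after glycan names were converted to IUPAC-condensed notation. The data come from 3228 arrays in the Consortium for Functional Glycomics database, limited to those with an available protein sequence. Binding is reported as a within-array Z-score averaged across arrays of one protein sequence and across linkers.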

Fuc(a1-2)Gal6S(b1-4)Glc = molecular target: Fuc(a1-2)Gal6S(b1-4)Glc
Procedure, shortened: as §1

[2] = molecular target: Fuc(a1-2)Gal6S(b1-4)Glc6S
Procedure, shortened: as §1

Fuc(a1-2)[Gal(a1-3)]Gal = molecular target: Fuc(a1-2)[Gal(a1-3)]Gal
Procedure, shortened: as §1

[3] = molecular target: Fuc(a1-2)[Gal(a1-3)]Gal(b1-3)GalNAc
Procedure, shortened: as §1

[4] = molecular target: Fuc(a1-2)[Gal(a1-3)]Gal(b1-3)GalNAc(b1-3)Gal(a1-4)Gal(b1-4)Glc
Procedure, shortened: as §1

[5] = molecular target: Fuc(a1-2)[Gal(a1-3)]Gal(b1-3)GlcNAc
Procedure, shortened: as §1

[6] = molecular target: Fuc(a1-2)[Gal(a1-3)]Gal(b1-3)GlcNAc(b1-2)Man(a1-3)[Fuc(a1-2)[Gal(a1-3)]Gal(b1-3)GlcNAc(b1-2)Man(a1-6)]Man(b1-4)GlcNAc(b1-4)GlcNAc
Procedure, shortened: as §1

[7] = molecular target: Fuc(a1-2)[Gal(a1-3)]Gal(b1-3)GlcNAc(b1-2)Man(a1-3)[Fuc(a1-2)[Gal(a1-3)]Gal(b1-3)GlcNAc(b1-2)Man(a1-6)]Man(b1-4)GlcNAc(b1-4)[Fuc(a1-6)]GlcNAc
Procedure, shortened: as §1

[8] = molecular target: Fuc(a1-2)[Gal(a1-3)]Gal(b1-3)GlcNAc(b1-3)GalNAc
Procedure, shortened: as §1

[9] = molecular target: Fuc(a1-2)[Gal(a1-3)]Gal(b1-3)GlcNAc(b1-6)GalNAc
Procedure, shortened: as §1

[10] = molecular target: Fuc(a1-2)[Gal(a1-3)]Gal(b1-4)Glc
Procedure, shortened: as §1

[11] = molecular target: Fuc(a1-2)[Gal(a1-3)]Gal(b1-4)GlcNAc
Procedure, shortened: as §1

[12] = molecular target: Fuc(a1-2)[Gal(a1-3)]Gal(b1-4)GlcNAc(b1-2)Man
Procedure, shortened: as §1

[13] = molecular target: Fuc(a1-2)[Gal(a1-3)]Gal(b1-4)GlcNAc(b1-2)Man(a1-3)[Fuc(a1-2)[Gal(a1-3)]Gal(b1-4)GlcNAc(b1-2)Man(a1-6)]Man(b1-4)GlcNAc(b1-4)GlcNAc
Procedure, shortened: as §1

[14] = molecular target: Fuc(a1-2)[Gal(a1-3)]Gal(b1-4)GlcNAc(b1-2)Man(a1-3)[Fuc(a1-2)[Gal(a1-3)]Gal(b1-4)GlcNAc(b1-2)Man(a1-6)]Man(b1-4)GlcNAc(b1-4)[Fuc(a1-6)]GlcNAc
Procedure, shortened: as §1

[15] = molecular target: Fuc(a1-2)[Gal(a1-3)]Gal(b1-4)GlcNAc(b1-3)GalNAc
Procedure, shortened: as §1

[16] = molecular target: Fuc(a1-2)[Gal(a1-3)]Gal(b1-4)GlcNAc(b1-3)[Fuc(a1-2)[Gal(a1-3)]Gal(b1-4)GlcNAc(b1-6)]GalNAc
Procedure, shortened: as §1

[17] = molecular target: Fuc(a1-2)[Gal(a1-3)]Gal(b1-4)GlcNAc(b1-6)GalNAc
Procedure, shortened: as §1

[18] = molecular target: Fuc(a1-2)[Gal(a1-3)]Gal(b1-4)[Fuc(a1-3)]Glc
Procedure, shortened: as §1

[19] = molecular target: Fuc(a1-2)[Gal(a1-3)]Gal(b1-4)[Fuc(a1-3)]GlcNAc
Procedure, shortened: as §1

[20] = molecular target: Fuc(a1-2)[Gal(a1-3)]Gal(b1-4)[Fuc(a1-3)]GlcNAc(b1-3)GalNAc
Procedure, shortened: as §1

[21] = molecular target: Fuc(a1-2)[Gal(a1-4)]Gal(b1-4)GlcNAc
Procedure, shortened: as §1

[22] = molecular target: Fuc(a1-2)[GalNAc(a1-3)]Gal
Procedure, shortened: as §1

[23] = molecular target: Fuc(a1-2)[GalNAc(a1-3)]Gal(b1-3)GalNAc(a1-3)[Fuc(a1-2)]Gal(b1-4)GlcNAc
Procedure, shortened: as §1

[24] = molecular target: Fuc(a1-2)[GalNAc(a1-3)]Gal(b1-3)GalNAc(b1-3)Gal(a1-4)Gal(b1-4)Glc
Procedure, shortened: as §1

[25] = molecular target: Fuc(a1-2)[GalNAc(a1-3)]Gal(b1-3)GlcNAc
Procedure, shortened: as §1

[26] = molecular target: Fuc(a1-2)[GalNAc(a1-3)]Gal(b1-3)GlcNAc(b1-2)Man(a1-3)[Fuc(a1-2)[GalNAc(a1-3)]Gal(b1-3)GlcNAc(b1-2)Man(a1-6)]Man(b1-4)GlcNAc(b1-4)GlcNAc
Procedure, shortened: as §1

[27] = molecular target: Fuc(a1-2)[GalNAc(a1-3)]Gal(b1-3)GlcNAc(b1-2)Man(a1-3)[Fuc(a1-2)[GalNAc(a1-3)]Gal(b1-3)GlcNAc(b1-2)Man(a1-6)]Man(b1-4)GlcNAc(b1-4)[Fuc(a1-6)]GlcNAc
Procedure, shortened: as §1

[28] = molecular target: Fuc(a1-2)[GalNAc(a1-3)]Gal(b1-3)GlcNAc(b1-3)GalNAc
Procedure, shortened: as §1

[29] = molecular target: Fuc(a1-2)[GalNAc(a1-3)]Gal(b1-3)GlcNAc(b1-6)GalNAc
Procedure, shortened: as §1

[30] = molecular target: Fuc(a1-2)[GalNAc(a1-3)]Gal(b1-4)Glc
Procedure, shortened: as §1

[31] = molecular target: Fuc(a1-2)[GalNAc(a1-3)]Gal(b1-4)GlcNAc
Procedure, shortened: as §1

[32] = molecular target: Fuc(a1-2)[GalNAc(a1-3)]Gal(b1-4)GlcNAc(b1-2)Man
Procedure, shortened: as §1

[33] = molecular target: Fuc(a1-2)[GalNAc(a1-3)]Gal(b1-4)GlcNAc(b1-2)Man(a1-3)[Fuc(a1-2)[GalNAc(a1-3)]Gal(b1-4)GlcNAc(b1-2)Man(a1-6)]Man(b1-4)GlcNAc(b1-4)GlcNAc
Procedure, shortened: as §1

[34] = molecular target: Fuc(a1-2)[GalNAc(a1-3)]Gal(b1-4)GlcNAc(b1-2)Man(a1-3)[Fuc(a1-2)[GalNAc(a1-3)]Gal(b1-4)GlcNAc(b1-2)Man(a1-6)]Man(b1-4)GlcNAc(b1-4)[Fuc(a1-6)]GlcNAc
Procedure, shortened: as §1

[35] = molecular target: Fuc(a1-2)[GalNAc(a1-3)]Gal(b1-4)GlcNAc(b1-3)Gal(b1-4)GlcNAc
Procedure, shortened: as §1

[36] = molecular target: Fuc(a1-2)[GalNAc(a1-3)]Gal(b1-4)GlcNAc(b1-3)Gal(b1-4)GlcNAc(b1-3)Gal(b1-4)GlcNAc
Procedure, shortened: as §1

[37] = molecular target: Fuc(a1-2)[GalNAc(a1-3)]Gal(b1-4)GlcNAc(b1-3)GalNAc
Procedure, shortened: as §1

[38] = molecular target: Fuc(a1-2)[GalNAc(a1-3)]Gal(b1-4)GlcNAc(b1-3)[Fuc(a1-2)[GalNAc(a1-3)]Gal(b1-4)GlcNAc(b1-6)]GalNAc
Procedure, shortened: as §1

[39] = molecular target: Fuc(a1-2)[GalNAc(a1-3)]Gal(b1-4)GlcNAc(b1-6)GalNAc
Procedure, shortened: as §1

[40] = molecular target: Fuc(a1-2)[GalNAc(a1-3)]Gal(b1-4)[Fuc(a1-3)]GlcNAc
Procedure, shortened: as §1

[41] = molecular target: Fuc(a1-2)[GalNAc(a1-3)]Gal(b1-4)[Fuc(a1-3)]GlcNAc(b1-3)GalNAc
Procedure, shortened: as §1

[42] = molecular target: Fuc(a1-2)[GalNAc(a1-4)]Gal(b1-4)GlcNAc
Procedure, shortened: as §1

[43] = molecular target: Fuc(a1-2)[GalNAc(b1-3)]Gal
Procedure, shortened: as §1

B1: SBD-G4S3-Fc (protein)
chain: MASIPSSASVQLDSYNYDGSTFSGKIYVKNIAYSKKVTVVYADGSDNWNNNGNIIAASFSGPISGSNYEYWTFSASVKGIKEFYIKYEVSGKTYYDNNNSANYQVSTGGGGSGGGGSGGGGSEFVPRDCGCKPCICTVPEVSSVFIFPPKPKDVLTITLTPKVTCVVVDISKDDPEVQFSWFVDDVEVHTAQTQPREEQFNSTFRSVSELPIMHQDWLNGKEFKCRVNSAAFPAPIEKTISKTKGRPKAPQVYTIPPPKEQMAKDKVSLTCMITDFFPEDITVEWQWNGQPAENYKNTQPIMDTDGSYFVYSKLNVQKSNWEAGNTFTCSVLHEGLHNHHTEKSLSHSPGAA
- glycan array binding signal (z-score) [1]: -0.064
- glycan array binding signal (z-score) (Fuc(a1-2)Gal6S(b1-4)Glc): 0.11
- glycan array binding signal (z-score) [2]: -0.103
- glycan array binding signal (z-score) (Fuc(a1-2)[Gal(a1-3)]Gal): -0.16
- glycan array binding signal (z-score) [3]: -0.326
- glycan array binding signal (z-score) [4]: 0.044
- glycan array binding signal (z-score) [5]: -0.213
- glycan array binding signal (z-score) [6]: -0.026
- glycan array binding signal (z-score) [7]: 0.186
- glycan array binding signal (z-score) [8]: -0.366
- glycan array binding signal (z-score) [9]: -0.211
- glycan array binding signal (z-score) [10]: -0.083
- glycan array binding signal (z-score) [11]: -0.379
- glycan array binding signal (z-score) [12]: -0.093
- glycan array binding signal (z-score) [13]: -0.022
- glycan array binding signal (z-score) [14]: 0.297
- glycan array binding signal (z-score) [15]: -0.154
- glycan array binding signal (z-score) [16]: -0.465
- glycan array binding signal (z-score) [17]: -0.238
- glycan array binding signal (z-score) [18]: -0.033
- glycan array binding signal (z-score) [19]: -0.324
- glycan array binding signal (z-score) [20]: -0.371
- glycan array binding signal (z-score) [21]: -0.203
- glycan array binding signal (z-score) [22]: -0.286
- glycan array binding signal (z-score) [23]: 5.6
- glycan array binding signal (z-score) [24]: 0.07
- glycan array binding signal (z-score) [25]: -0.124
- glycan array binding signal (z-score) [26]: -0.372
- glycan array binding signal (z-score) [27]: -0.163
- glycan array binding signal (z-score) [28]: 0.304
- glycan array binding signal (z-score) [29]: -0.143
- glycan array binding signal (z-score) [30]: -0.287
- glycan array binding signal (z-score) [31]: -0.292
- glycan array binding signal (z-score) [32]: -0.333
- glycan array binding signal (z-score) [33]: 0.007
- glycan array binding signal (z-score) [34]: -0.364
- glycan array binding signal (z-score) [35]: -0.223
- glycan array binding signal (z-score) [36]: 0.303
- glycan array binding signal (z-score) [37]: -0.187
- glycan array binding signal (z-score) [38]: -0.2
- glycan array binding signal (z-score) [39]: -0.206
- glycan array binding signal (z-score) [40]: 0.004
- glycan array binding signal (z-score) [41]: -0.352
- glycan array binding signal (z-score) [42]: 0.1
- glycan array binding signal (z-score) [43]: -0.002
